Experimental data published in a collection of fitness landscapes (doi:10.1126/science.1257360).
The list shows a part of the results.

B1: PhoQ; a variant is named by its letters at X, in order, P23837 (parent)
chain: MKKLLRLFFPLSLRVRFLLATAAVVLVLSLAYGMVALIGYSVSFDKTTFRLLRGESNLFYTLAKWENNKLHVELPENIDKQSPTMTLIYDENGQLLWAQRDVPWLMKMIQPDWLKSNGFHEIEADVNDTSLLLSGDHSIQQQLQEVREDDDDAEMTHSVAVNVYPATSRMPKLTIVVVDTIPVELKSSYMVWSWFIYVLSANLLLVIPLLWVAAWWSLRPIEALAKEVRELEEHNRELLNPATTRELTSLVRNLNRLLKSERERYDKYRTTLTDLTHSLKTPLXXLQXXLRSLRSEKMSVSDAEPVMLEQISRISQQIGYYLHRASMRGGTLLSRELHPVAPLLDNLTSALNKVYQRKGVNISLDISPEISFVGEQNDFVEVMGNVLDNACKYCLEFVEISARQTDEHLYIVVEDDGPGIPLSKREVIFDRGQRVDTLRPGQGVGLAVAREITEQYEGKIVAGESMLGGARMEVIFGRQHSAPKDE

Variants of: B1
Test: enrichment ratio after two sorts for PhoP signalling (ratio (wild type AVST 3.29)); higher = more functional
Details: with PhoP (E. coli)

| Variant | enrichment ratio |
| --- | --- |
| AFPA | ≤ 0.25 |
| ANIP | ≤ 0.25 |
| HWQH | ≤ 0.25 |
| WGLW | ≤ 0.25 |
| SCCP | ≤ 0.25 |
| SKRQ | ≤ 0.25 |
| TENA | 9.68 |
| ASIC | 12.1 |
| KVWI | ≤ 0.25 |
| WQRL | ≤ 0.25 |
| ELWN | ≤ 0.25 |
| NQEF | ≤ 0.25 |
| LRWD | ≤ 0.25 |
| VMSC | ≤ 0.25 |
| GAYG | ≤ 0.25 |
| VIWP | 0.312 |
| SQSC | 11.7 |
| IWQK | ≤ 0.25 |
| NGIM | ≤ 0.25 |
| TDTE | ≤ 0.25 |
| DDDM | ≤ 0.25 |
| GRLD | ≤ 0.25 |
| SGWC | ≤ 0.25 |
| PPWS | ≤ 0.25 |

| Variant | enrichment ratio |
| --- | --- |
| SEYH | 1.88 |
| KITC | ≤ 0.25 |
| LKHY | ≤ 0.25 |
| CSRV | ≤ 0.25 |
| PTKF | ≤ 0.25 |
| IMTW | ≤ 0.25 |
| HWAT | ≤ 0.25 |
| PLND | ≤ 0.25 |
| PCNN | ≤ 0.25 |
| SRIF | ≤ 0.25 |
| EHVG | ≤ 0.25 |
| WRYN | ≤ 0.25 |
| PLYT | ≤ 0.25 |
| SMAG | 11.3 |
| NYGQ | ≤ 0.25 |
| TIKI | ≤ 0.25 |
| KDVR | ≤ 0.25 |
| KRMG | ≤ 0.25 |
| TSLR | 1.77 |
| RCAM | ≤ 0.25 |
| QQEF | ≤ 0.25 |
| VYHP | ≤ 0.25 |
| IFPR | ≤ 0.25 |
| QDVG | ≤ 0.25 |

| Variant | enrichment ratio |
| --- | --- |
| TWKM | ≤ 0.25 |
| FRNH | ≤ 0.25 |
| VTIC | ≤ 0.25 |
| PIVF | ≤ 0.25 |
| NCDT | ≤ 0.25 |
| HTFM | ≤ 0.25 |
| FTVQ | ≤ 0.25 |
| RFLP | ≤ 0.25 |
| MSYT | 9.58 |
| YNSK | ≤ 0.25 |
| WPDS | ≤ 0.25 |
| QVMS | ≤ 0.25 |
| YVRK | ≤ 0.25 |
| DKPH | ≤ 0.25 |
| VFAK | ≤ 0.25 |
| AVGD | ≤ 0.25 |
| YKCH | ≤ 0.25 |
| AEIM | 15.7 |
| KYQA | ≤ 0.25 |
| SRMF | ≤ 0.25 |
| NCSI | ≤ 0.25 |
| IWMF | ≤ 0.25 |
| FDLG | ≤ 0.25 |
| NQSG | ≤ 0.25 |

| Variant | enrichment ratio |
| --- | --- |
| YNTD | ≤ 0.25 |
| WNAE | ≤ 0.25 |
| LAGN | ≤ 0.25 |
| WEYD | ≤ 0.25 |
| GFRC | ≤ 0.25 |
| HHYT | ≤ 0.25 |
| FSDK | ≤ 0.25 |
| AIMC | ≤ 0.25 |
| VTQM | ≤ 0.25 |
| LNFG | ≤ 0.25 |
| FSYC | ≤ 0.25 |
| KYWW | ≤ 0.25 |
| KAEP | ≤ 0.25 |
| CLIL | ≤ 0.25 |
| YEHI | ≤ 0.25 |
| DHFR | ≤ 0.25 |
| PNSH | ≤ 0.25 |
| WNIF | ≤ 0.25 |
| RKYC | ≤ 0.25 |
| SHGA | ≤ 0.25 |
| NMVC | ≤ 0.25 |
| FDIE | ≤ 0.25 |
| FENH | ≤ 0.25 |
| CFKV | ≤ 0.25 |

| Variant | enrichment ratio |
| --- | --- |
| GSVW | ≤ 0.25 |
| ESCN | ≤ 0.25 |
| RHLA | ≤ 0.25 |
| EQCN | ≤ 0.25 |
| SKKC | ≤ 0.25 |
| LAPR | ≤ 0.25 |
| WKWM | ≤ 0.25 |
| RRIV | ≤ 0.25 |
| MYQS | ≤ 0.25 |
| KAQL | 1.07 |
| FEQA | ≤ 0.25 |
| VEQT | ≤ 0.25 |
| YGKW | ≤ 0.25 |
| APGF | ≤ 0.25 |
| PPNQ | ≤ 0.25 |
| EVRF | ≤ 0.25 |
| STFN | ≤ 0.25 |
| QQGP | ≤ 0.25 |
| HDCR | ≤ 0.25 |
| LPNG | ≤ 0.25 |
| KSSY | ≤ 0.25 |
| EAKM | ≤ 0.25 |
| SYMT | 0.323 |
| WLVT | ≤ 0.25 |

| Variant | enrichment ratio |
| --- | --- |
| AHCC | ≤ 0.25 |
| EETP | ≤ 0.25 |
| SMDL | ≤ 0.25 |
| PLVR | ≤ 0.25 |
| KTVR | ≤ 0.25 |
| LDFL | ≤ 0.25 |
| VKVQ | ≤ 0.25 |
| RAQI | ≤ 0.25 |
| RHTC | ≤ 0.25 |
| RHCQ | ≤ 0.25 |
| RFTQ | ≤ 0.25 |
| WISP | ≤ 0.25 |
| SWDL | ≤ 0.25 |
| KPHD | ≤ 0.25 |
| GRII | ≤ 0.25 |
| FEAP | ≤ 0.25 |
| IQMG | ≤ 0.25 |
| MISL | 6.62 |
| TGFD | ≤ 0.25 |
| RRGS | ≤ 0.25 |
| YIKS | ≤ 0.25 |
| MDVN | ≤ 0.25 |
| TVYL | 2.97 |
| DHQF | ≤ 0.25 |

| Variant | enrichment ratio |
| --- | --- |
| HSQT | ≤ 0.25 |
| MIDP | ≤ 0.25 |
| WGPS | ≤ 0.25 |
| FYLT | ≤ 0.25 |
| YYHF | ≤ 0.25 |
| DKPW | ≤ 0.25 |
| IGAT | ≤ 0.25 |
| RAMG | ≤ 0.25 |
| CRGL | ≤ 0.25 |
| KACV | ≤ 0.25 |
| AWMI | ≤ 0.25 |
| IDQT | ≤ 0.25 |
| IVAK | ≤ 0.25 |
| EFSG | ≤ 0.25 |
| DFAP | ≤ 0.25 |
| FRYM | ≤ 0.25 |
| AGRR | ≤ 0.25 |
| NAIQ | ≤ 0.25 |
| SCTF | 9.43 |
| IPTL | ≤ 0.25 |
| GVIY | ≤ 0.25 |
| TSNS | 12.8 |
| QAVD | ≤ 0.25 |
| WQTI | ≤ 0.25 |

| Variant | enrichment ratio |
| --- | --- |
| HECI | 6.73 |
| PPTP | ≤ 0.25 |
| PISK | ≤ 0.25 |
| ECSC | ≤ 0.25 |
| ENFV | ≤ 0.25 |
| IRFC | ≤ 0.25 |
| KIVG | ≤ 0.25 |
| WKYA | ≤ 0.25 |
| HWPH | ≤ 0.25 |
| RRVV | ≤ 0.25 |
| MFMQ | ≤ 0.25 |
| MFSN | 1.34 |
| MALI | 10.9 |
| RHID | ≤ 0.25 |
| WMRI | ≤ 0.25 |
| DFES | ≤ 0.25 |
| QQSM | 13.3 |
| LAYN | ≤ 0.25 |
| HQPW | ≤ 0.25 |
| GQAK | ≤ 0.25 |
| ICNK | ≤ 0.25 |
| APDK | ≤ 0.25 |
| EFWA | ≤ 0.25 |
| AWKF | ≤ 0.25 |

| Variant | enrichment ratio |
| --- | --- |
| TTYS | 3.99 |
| IMYW | ≤ 0.25 |
| LYSG | ≤ 0.25 |
| DMKC | ≤ 0.25 |
| RQAF | ≤ 0.25 |
| ALQW | ≤ 0.25 |
| KEIA | ≤ 0.25 |
| LTWH | ≤ 0.25 |
| HSNM | ≤ 0.25 |
| IKIQ | ≤ 0.25 |
| NHKS | ≤ 0.25 |
| RRLS | ≤ 0.25 |
| GNPR | ≤ 0.25 |
| HIFQ | ≤ 0.25 |
| MFCQ | ≤ 0.25 |
| YRAT | ≤ 0.25 |
| SCCS | 9.76 |
| LTGS | ≤ 0.25 |
| IIHW | ≤ 0.25 |
| RWGN | ≤ 0.25 |
| WPNP | ≤ 0.25 |
| WNRT | ≤ 0.25 |
| KAKC | ≤ 0.25 |
| INEH | ≤ 0.25 |

| Variant | enrichment ratio |
| --- | --- |
| FFPI | ≤ 0.25 |
| KWAF | ≤ 0.25 |
| PLWI | ≤ 0.25 |
| IWGF | ≤ 0.25 |
| PRLM | ≤ 0.25 |
| VKHW | ≤ 0.25 |
| LGTA | ≤ 0.25 |
| SRCV | 5.55 |
| KSVC | ≤ 0.25 |
| DRRH | ≤ 0.25 |
| QSRQ | ≤ 0.25 |
| RQPM | ≤ 0.25 |
| PQWN | ≤ 0.25 |
| GICE | 6.08 |
| CSVI | ≤ 0.25 |
| IAVS | ≤ 0.25 |
| QSQW | ≤ 0.25 |
| VYIV | ≤ 0.25 |
| AIIM | 7.97 |
| SFML | 1.95 |
| AQRM | ≤ 0.25 |
| LFEF | ≤ 0.25 |
| PRFW | ≤ 0.25 |
| RSNR | ≤ 0.25 |

| Variant | enrichment ratio |
| --- | --- |
| RIWP | ≤ 0.25 |
| SWDR | ≤ 0.25 |
| VDNR | ≤ 0.25 |
| DQHG | ≤ 0.25 |
| MWLQ | ≤ 0.25 |
| VPAT | ≤ 0.25 |
| ETWG | ≤ 0.25 |
| ELFV | ≤ 0.25 |
| KFPH | ≤ 0.25 |
| FCKA | ≤ 0.25 |
| FHEQ | ≤ 0.25 |
| KTSW | ≤ 0.25 |
| LGND | ≤ 0.25 |
| NDHR | ≤ 0.25 |
| NLCV | ≤ 0.25 |
| MNHG | ≤ 0.25 |
| SETW | 3.01 |
| KKTT | ≤ 0.25 |
| MKDF | ≤ 0.25 |
| ESTV | ≤ 0.25 |
| NTWK | ≤ 0.25 |
| RVRH | ≤ 0.25 |
| FPQR | ≤ 0.25 |
| TPRG | ≤ 0.25 |

| Variant | enrichment ratio |
| --- | --- |
| RDEY | ≤ 0.25 |
| QLAT | ≤ 0.25 |
| SSPV | 1.03 |
| NHDL | ≤ 0.25 |
| FNTD | ≤ 0.25 |
| EGFE | ≤ 0.25 |
| YMPK | ≤ 0.25 |
| KPKY | ≤ 0.25 |
| IDIV | ≤ 0.25 |
| GMEK | ≤ 0.25 |
| QLCQ | ≤ 0.25 |
| GAST | ≤ 0.25 |
| PLCE | ≤ 0.25 |
| NING | ≤ 0.25 |
| IYFD | ≤ 0.25 |
| PHVL | ≤ 0.25 |
| FRRI | ≤ 0.25 |
| YGMC | 0.496 |
| WCTL | ≤ 0.25 |
| KHSI | ≤ 0.25 |
| VICP | ≤ 0.25 |
| YWPY | ≤ 0.25 |
| KIIC | ≤ 0.25 |
| WIGF | ≤ 0.25 |

| Variant | enrichment ratio |
| --- | --- |
| FLSD | ≤ 0.25 |
| VLEY | ≤ 0.25 |
| NWGS | ≤ 0.25 |
| TTAI | 3.18 |
| SKRY | ≤ 0.25 |
| IVDH | ≤ 0.25 |
| SPIQ | ≤ 0.25 |
| NDLC | ≤ 0.25 |
| VKGM | ≤ 0.25 |
| METE | ≤ 0.25 |
| SIMP | ≤ 0.25 |
| HHVN | ≤ 0.25 |
| QDWQ | ≤ 0.25 |
| GKQA | ≤ 0.25 |
| TPVD | ≤ 0.25 |
| FFQY | ≤ 0.25 |
| HPRL | ≤ 0.25 |
| YWET | ≤ 0.25 |
